B1: TPR 5TU (parent)
chain: GGAUCUUCUCGAUCUAACAAAAAAGACAAAUCUGCCACAAAGCUUGAGAGCAUCUUCGGAUGCAGAGGCGGCAGCCUUCGGUGGCGCGAUAGCGCCAACGUUCUCAACUAUGACACGCAAAACGCGUGCUCCGUUGAAUGGAGUUUAUCAUG

This sample is rich in variants without activity. Where only a bound is given, the exact number is not on record here.

Variants of B1 are the subject of the data set. As to the kind of experiment: polymerase ribozyme fitness, log enrichment relative to wild type (log ratio); higher = more active; in vitro selection for triplet polymerase activity. The essentials: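 After PCR construction and transcription, each subunit's mutant library from a heterodimeric triplet polymerase ribozyme was annealed with a biotinylated primer, the partner subunit and triplets. Incubation was frozen, at −7 °C, and extended constructs were gel-excised, bound to streptavidin beads and amplified by RT-PCR, in one selection round done in triplicate. Fitness is the logarithm of a genotype's enrichment divided by that of the wild type, from inverse-variance-weighted replicate averages of Illumina-sequenced inputs and outputs. The base of the logarithm is 2, and genotypes needed ≥10 input reads and ≥1 read per output.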
With GGAUCUUCUCGAUCUAACAAAAAAGACAAAUCUGCUACAAAGCUUGAGAGCAUCUUCGGAUGCAGAGGCGGCAGCCUUCGGUGGUGCGAUAGCGACAACGUUCUCAACUAUGACACGCAAAACGCGUGCUCCAUUGAAUGGAGUUUAUCAUG [C36U C85U C95A G133A], the “polymerase ribozyme fitness (log ratio)” value is at most -4.2.

GGAUCUUCUCGAUCUAACAAAAAAGACAAAUCUGCUACAAAGCUUGACAGCAUCUUCGGAUGCAGAGGCGGCAGCCUUCGGUGGCGCGAUAGCGACAGCGUUCUCAACUAUGACACGCCAAACGCGUGCUCCGUUGAAUGGAGUUUAUCCUG [C36U G48C C95A A98G A119C A150C]: the “polymerase ribozyme fitness (log ratio)” value is at most -4.2. On to GGAUCUUCUCGAUCUAACAAAAAAGACAAAUCUGCUACAAAGCUUGACAGCAUCUUCGGAUGCAGAGGCGGCAGCCUUCGGUGGCGCGAUAGCGCCAACGUCCUCAACUAUGACACGCAAAACGCGUGCUCCGUUGAAUGGAGUUUAACAUG [C36U G48C U102C U148A], for which the “polymerase ribozyme fitness (log ratio)” value was at most -4.2. As to GGAUCUUCUCGAUCUAACAAAAAAGACAAAUCUGCUACAAAGCUUGAGAGCAUCUUCGGAUGCAGAGGCGGCAGCCUUCGGUGGCGCGAUAGGGCCAACGUUGUCAACUAUGACACGCAAAACGCGUGAUCCGUUGAAUGCAGUUUAUCAUG [C36U C93G C103G C129A G141C], the “polymerase ribozyme fitness (log ratio)” value was at most -4.2. On to GGAUCUUCUCGAUCUAACAAAAAAGACAAAUCUGCUACAAAGCUUGAGAGCAUCUUCGGAUGCAGAGGCGGCAGCCUUCGGUGGCGAGAUUGCGCCAAAGUUCUCAACUAUGACACGCAAAACGCGUGCUCCGUUGAAUGGAGUUUAUCAUG [C36U C87A A91U C99A], for which the “polymerase ribozyme fitness (log ratio)” value was at most -4.2. With GGAUCUUCUCGAUCUAACAAAAAAGACAAAUCUGCUACAAAGCUUGAGAGCAUCUUCGGAUGCAGAGGCGGCAGCCUUCGGUGGCGAGAUAGCGCCAACGUUCUCAACUAUGACACGCAAAACGCGUGCUUCAUUGAAUGGAGUUUAUCAUG [C36U C87A C131U G133A], the “polymerase ribozyme fitness (log ratio)” value was at most -4.2.

Take GGAUCUUCUCGAUCUAACAAAAAAGACAAAUCUGCUACAAAGCUUGAGAGCAUCUUCGGAUGCAGAGGCGGCAGCCUUCGGUGGUGCGAUAGCGCCAUCGUUCUCAACUAUGACACGCAAAACGCAUGCUCCGUUGAAUGAAGUUACUCAUG [C36U C85U A98U G126A G141A U146A A147C]: the “polymerase ribozyme fitness (log ratio)” value was at most -4.2. On to GGAUCUUCUCGAUCUAACAAAAAAGACAAAUCUGCUACAAAGCUUGAGAGCAUCUUCGGAUGCAGAGGCGGCAGCCUUCGGUGGCGCGAUAGGCCCAACGUUCUCAACUAUGACACGCACAACGCGUGCUCCGUUGAAUGGCGUUUAACAUG [C36U C93G G94C A120C A142C U148A], for which the “polymerase ribozyme fitness (log ratio)” value was at most -4.2. With GGAUCUUCUCGAUCUAACAAAAAAGACAAAUCUGCUACAAAGCUUGAGAGCAUCUUCGGAUGCAGAGGCGGCAGCCUUCGGUGGCGAGAUAGCGCCAACGUUCUCAACUAUGACACUCAAAACGCGUGCUCCGUUGAAUGGAGUUUAUCAUG [C36U C87A G117U], the “polymerase ribozyme fitness (log ratio)” value is at most -4.2. With GGAUCUUCUCGAUCUAACAAAAAAGACAAAUCUGCUACAAAGCUUGAGAGCAUCUUCGGAUGCAGAGGCGGCAGCCUUCGGUGGCGCGAUAGAUCCAACGUUCUCAACUAUGACACGCAAAACGCGUGCUCCGUUGAAUGGGAUUUAUCAGG [C36U C93A G94U A142G G143A U151G] the figure was at most -4.2; with GGAUCUUCUCGAUCUAACAAAAAAGACAAAUCUGCUACAAAGCUUGAGAGCAUCUUCGGAUGCAGAGGCGGCAGCCUUCGGUGGCGCGAUAGCGCCAACGUUCUCAACUAUGAUACGCAAAACGCGUGCUCCGUUGAAUGGAGUUUAUCAUG [C36U C114U], -3.21; with GGAUCUUCUCGAUCUAACAAAAAAGACAAAUCUGCUACAAAGCUUGAGAGCAUCUUCGGAUGCAGAGGCGGCAGCCUUCGGUGGCGCGAUAGCGGCAACGUUCUCAAAUAUGACACGCAAAACGCGUGCUCCGUUGAAUGGAGUUUAUCAUG [C36U C95G C108A], -3.89. Turning to GGAUCUUCUCGAUCUAACAAAAAAGACAAAUCUGCUACAAAACUUGAGAGCAUCUUCGGAUGCAGAGGCGGCAGCCUUCGGUGGCGCGAUAGCGACAACGUUCUGAAUUAUGACACGAAAAACGCGUGCUCCGUUGAAUGGAGUUUCUCCUG [C36U G42A C95A C105G C108U C118A A147C A150C], the “polymerase ribozyme fitness (log ratio)” value was at most -4.2. As to GGAUCUUCUCGAUCUAACAAAAAAGACAAAUCUGCUACAAAGCUUGAGAGCAUCUUCGGAUGCAGAGGCGGCAGCCUUCGGUGGCGCGAUAGAGCGAACGUUCUCAACAAUGACACGCAAAACGCGUGCUCCGUUGAAUGGAGUUUAUCAUG [C36U C93A C96G U109A], the “polymerase ribozyme fitness (log ratio)” value is at most -4.2. GGAUCUUCUCGAUCUAACAAAAAAGACAAAUCUGCUACAAAGCUUGAGAGCAUCUUCGGAUGCAGAGGCGGCAGCCUUCGGUGGCGCGAUAGCGCCAACGUUGUCAACUAUGACACGCAAAACGCGUGCUCCGUUGAAUGGAGUUUAUCAUG [C36U C103G]: the “polymerase ribozyme fitness (log ratio)” value was -3.78.

GGAUCUUCUCGAUCUAACAAAAAAGACAAAUCUGCUACAAAGCUUGAGAGCAUCUUCGGAUGCAGAGGCGGCAGCCUUCGGUGGCGCGAUAGCGCUAACGUUCUCAACUAUGACACGCAAAACGCGUGCUCCGUUGAAUGGCGUUUAUCAUG [C36U C96U A142C]: the “polymerase ribozyme fitness (log ratio)” value was -2.88. Turning to GGAUCUUCUCGAUCUAACAAAAAAGACAAAUCUGCUACAAAGCUUGAGAGCAUCUUCGGAUGCAGAGGCGGCAGCCUUCGGUGGGGCGAUAGCGCCAACGUUCUCAACUAUGACACGCAAAACGCGUGCUCCGUUGAAUGGAGUUUAUCAUU [C36U C85G G152U], the “polymerase ribozyme fitness (log ratio)” value was at most -4.2. With GGAUCUUCUCGAUCUAACAAAAAAGACAAAUCUGCUACAAAGCUUGAGAGCAUCUUCGGAUGCAGAGGCGGCAGCCUUCGGUGGUGCGAUAGCGCCAACGUUCUCAACUAUGACACGCAAAACCCGUGCUCCGUUGAAUGGAGUUUAUCAUG [C36U C85U G124C], the “polymerase ribozyme fitness (log ratio)” value is -2.46. For the variant GGAUCUUCUCGAUCUAACAAAAAAGACAAAUCUGCUACAAAGCUUGAGAGCAUCUUCGGAUGCAGAGGCGGCAGCCUUCGGUGGCGUGAUAGCGCCAACGUUCUCAACUAUGACACGCAAAACGCAUGCUCCGUUGAAUGGAGUUUAUCAUG [C36U C87U G126A], the “polymerase ribozyme fitness (log ratio)” value was -2.05.

Values taken from the RNAGym collection of RNA variant scans (doi:10.1073/pnas.2313332121).
